Some of these densities may be calculated back from excess volumes.
Test: xn = mol fraction of the nth substance listed
Settings: 100 kPa

CCCC[N+](C)(C)C.O=S(=O)([N-]S(=O)(=O)C(F)(F)F)C(F)(F)F + CC(O)C(C)O
x2 = 0
Settings	mass density [kg/m3]
323.15 K	1371
328.15 K	1366
333.15 K	1362
343.15 K	1353
348.15 K	1349

CCCC[N+](C)(C)C.O=S(=O)([N-]S(=O)(=O)C(F)(F)F)C(F)(F)F + CC(O)CO
mass density [kg/m3]
Settings	x2 = 0	x2 = 0.132	x2 = 0.1909	x2 = 0.3054	x2 = 0.5274	x2 = 0.7262	x2 = 0.8149	x2 = 0.8843
323.15 K	1371	1356	1347.7	–	–	1220.4	1176.3	1131
328.15 K	1366	–	–	–	1281.6	1216	–	1126.8
333.15 K	1362	1346.9	1338.9	–	1277.2	1211.5	1167.7	–
338.15 K	1358	1342.5	1334.5	1317.5	–	1207.1	1163.4	1118.2
343.15 K	1353	1338	–	1313.1	1268.2	1202.7	1159	1114
348.15 K	1349	1333.7	1325.8	1308.7	–	–	1154.7	–
353.15 K	1344.7	1329.2	1321.5	1304.1	1259.3	1193.8	1150.4	1105.3

C[N+](C)(C)CCO.O=S(=O)([N-]S(=O)(=O)C(F)(F)F)C(F)(F)F + CC(O)CO
mass density [kg/m3]
Settings	313.15 K	318.15 K	323.15 K	328.15 K	333.15 K	338.15 K	343.15 K	348.15 K	353.15 K
x2 = 0	1514	1510	1505	–	–	–	1487	–	–
x2 = 0.2189	–	1471	1467	–	1457	1453	1448	1444	–
x2 = 0.3834	–	1432	–	1422	–	1413	1409	1404	1400
x2 = 0.4786	–	–	1398	1394	1389	1384	1380	1375	1371
x2 = 0.5867	1367	1362	1357	1353	1348.4	1343.9	1339.3	1334.8	–
x2 = 0.7668	–	1265.2	–	1256.4	–	1247.6	1243.1	1238.7	1234.3
x2 = 0.8744	–	1177.2	1173	1168.7	–	–	1155.9	1151.6	1147.2

CCCC[N+](C)(C)C.O=S(=O)([N-]S(=O)(=O)C(F)(F)F)C(F)(F)F + CCC(O)CO
mass density [kg/m3]
Settings	323.15 K	328.15 K	333.15 K	338.15 K	343.15 K	348.15 K	353.15 K
x2 = 0	1371	1366	–	1358	1353	1349	1344.7
x2 = 0.2291	1335.3	1330.8	–	1322	1317.7	–	1309
x2 = 0.3543	1310.3	1305.8	–	1297	1292.6	1288.2	1283.8
x2 = 0.5116	1269.7	1265.2	1260.8	1256.4	–	–	1243.1
x2 = 0.6289	1229.8	1225.3	1221	1216.7	1212.4	1208	1203.6
x2 = 0.8622	1108.2	1103.8	1099.7	1095.5	1091.3	–	–
x2 = 0.9031	–	–	1068.7	1064.6	–	1056.1	–

CC(O)C(C)O (stereo not given) + CCCC[N+](C)(C)C.O=S(=O)([N-]S(=O)(=O)C(F)(F)F)C(F)(F)F
mass density [kg/m3]
Settings	323.15 K	328.15 K	333.15 K	338.15 K	343.15 K	348.15 K	353.15 K
x1 = 0.0879	1358	1354	1349.3	1344.9	1340.5	1336.2	1331.9
x1 = 0.3137	1317.7	1313.3	1308.8	1304.4	–	1295.6	1291.1
x1 = 0.4515	–	–	1275.9	1271.5	1267	1262.6	1258.2
x1 = 0.557	1253.6	1249.1	1244.7	1240.2	–	1231.2	1226.8
x1 = 0.6216	1230.9	1226.4	–	1217.5	1213.2	–	1204
x1 = 0.8142	1137.6	1133.2	–	1124.3	–	1115.2	1110.7
x1 = 1	976.1	971.9	967.5	–	958.8	954.4	950

CC(O)CO (stereo not given) + CCCC[N+](C)(C)C.O=S(=O)([N-]S(=O)(=O)C(F)(F)F)C(F)(F)F
x1 = 1
Settings	mass density [kg/m3]
323.15 K	1013.7
338.15 K	1001.9
343.15 K	997.8
348.15 K	993.8
353.15 K	989.7

CCC(O)CO (stereo not given) + CCCC[N+](C)(C)C.O=S(=O)([N-]S(=O)(=O)C(F)(F)F)C(F)(F)F
x1 = 1
Settings	mass density [kg/m3]
323.15 K	979.1
328.15 K	975.1
333.15 K	971.2
338.15 K	967.2
343.15 K	963.1
348.15 K	959

CC(O)CO (stereo not given) + C[N+](C)(C)CCO.O=S(=O)([N-]S(=O)(=O)C(F)(F)F)C(F)(F)F
x1 = 1
Settings	mass density [kg/m3]
318.15 K	1017.6
323.15 K	1013.7
328.15 K	1009.8
338.15 K	1001.9
343.15 K	997.8
348.15 K	993.8
353.15 K	989.7

OCCCCCO + C[N+](C)(C)CCO.O=S(=O)([N-]S(=O)(=O)C(F)(F)F)C(F)(F)F
x1 = 1
Settings	mass density [kg/m3]
313.15 K	977.3
318.15 K	974.4
323.15 K	971.5
333.15 K	965.6
353.15 K	953.5

OCCCO + C[N+](C)(C)CCO.O=S(=O)([N-]S(=O)(=O)C(F)(F)F)C(F)(F)F
x1 = 1
Settings	mass density [kg/m3]
313.15 K	1040.8
318.15 K	1037.6
323.15 K	1034.4
328.15 K	1031.2
338.15 K	1024.6
343.15 K	1021.3
348.15 K	1018
353.15 K	1014.6

C[N+](C)(C)CCO.O=S(=O)([N-]S(=O)(=O)C(F)(F)F)C(F)(F)F + OCCCCCO
mass density [kg/m3]
Settings	313.15 K	318.15 K	323.15 K	328.15 K	333.15 K	338.15 K	343.15 K	348.15 K	353.15 K
x2 = 0	1514	1510	1505	1501	1496	1492	–	1482	–
x2 = 0.1351	1480	1475	1471	–	1462	1457	1453	1449	1444
x2 = 0.2149	1457	1452	–	1444	1439	1435	1430	1426	1421
x2 = 0.4145	1388	1384	–	1375	1371	–	1362	1358	–
x2 = 0.5087	1347.9	1343.7	1339.4	1335.2	1331	1326.8	–	1318.3	1314.2
x2 = 0.6847	1254.8	1250.9	1246.9	1243	1239	–	1231.1	1227.1	–
x2 = 0.7858	1187.1	–	–	1176	1172.2	1168.5	1164.8	1161	–
x2 = 0.9071	1081.9	1078.6	–	1072	1068.6	1065.2	1061.9	1058.5	1055.1

C[N+](C)(C)CCO.O=S(=O)([N-]S(=O)(=O)C(F)(F)F)C(F)(F)F + OCCCO
mass density [kg/m3]
Settings	313.15 K	318.15 K	323.15 K	328.15 K	333.15 K	338.15 K	343.15 K	348.15 K	353.15 K
x2 = 0	1514	1510	1505	–	1496	1492	–	1482	–
x2 = 0.1272	1494	1490	–	1481	1476	1472	–	1463	1458
x2 = 0.2297	1475	1470	1466	1461	1457	1452	1448	1443	1439
x2 = 0.4106	–	1427	1423	1418	–	1410	1405	1401	1396
x2 = 0.5712	–	–	1370	1366	1361	1357	1353	1348.2	1343.9
x2 = 0.6946	1323.2	1319	1314.7	1310.4	1306.1	1301.9	–	–	1289.1
x2 = 0.8367	1229.1	1225.2	1221.2	1217.3	1213.3	1209.3	–	1201.3	1197.3
x2 = 0.9474	–	1113	1109.5	1106	1102.5	–	1095.3	1091.7	1088

— a compilation of properties of binary mixtures (doi:10.1021/jp5065243)
